# The other results are listed elsewhere or left out.
# B1: Mg1lysM (Mycosphaerella graminicola) (protein)
# chain: QRNPITITPQFDCGATNSQQYVARSGDTLTKIAQEIYHDVVGVCDIARANNLADPNRIDAGTPYTIPINCQTYDRNSCL
# Columns and labels:
# Experiment in all cases: glycan array binding signal (z-score within array); higher = stronger binding
# Conditions in all cases: glycan notation: IUPAC condensed, linker removed
# [1] = target: Neu5Ac(a2-3)Gal6S(b1-4)[Fuc(a1-3)]GlcNAc
# Procedure, shortened: (§1)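 Glycan array data came from 3228 arrays in the Consortium for Functional Glycomics database, and only arrays with an available protein sequence were kept. Glycan names were put into IUPAC-condensed notation, and columns mapping to the same glycan were averaged. The binding signal is a within-array Z-score, averaged across arrays of one protein sequence run at different concentrations or buffers and across linkers. A negative Z-score can be read as non-binding.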
# [2] = target: Neu5Ac(a2-3)GalNAc
# Procedure, shortened: as §1
# [3] = target: Neu5Ac(a2-3)GalNAc(b1-4)GlcNAc
# Procedure, shortened: as §1
# [4] = target: Neu5Ac(a2-3)[GalNAc(b1-4)]Gal(b1-4)Glc
# Procedure, shortened: as §1
# [5] = target: Neu5Ac(a2-3)[GalNAc(b1-4)]Gal(b1-4)GlcNAc
# Procedure, shortened: as §1
# [6] = target: Neu5Ac(a2-3)[GalNAc(b1-4)]Gal(b1-4)GlcNAc(b1-3)GalNAc
# Procedure, shortened: as §1
# [7] = target: Neu5Ac(a2-3)[Neu5Ac(a2-6)]GalNAc
# Procedure, shortened: as §1
# [8] = target: Neu5Ac(a2-6)Gal
# Procedure, shortened: as §1
# [9] = target: Neu5Ac(a2-6)Gal(b1-3)GlcNAc(b1-3)[Gal(b1-4)GlcNAc(b1-6)]Gal(b1-4)Glc
# Procedure, shortened: as §1
# [10] = target: Neu5Ac(a2-6)Gal(b1-4)Glc
# Procedure, shortened: as §1
# [11] = target: Neu5Ac(a2-6)Gal(b1-4)GlcNAc
# Procedure, shortened: as §1
# [12] = target: Neu5Ac(a2-6)Gal(b1-4)GlcNAc(b1-2)Man
# Procedure, shortened: as §1
# [13] = target: Neu5Ac(a2-6)Gal(b1-4)GlcNAc(b1-2)Man(a1-3)Man(b1-4)GlcNAc(b1-4)GlcNAc
# Procedure, shortened: as §1
# [14] = target: Neu5Ac(a2-6)Gal(b1-4)GlcNAc(b1-2)Man(a1-3)[Gal(b1-4)GlcNAc(b1-2)Man(a1-6)]Man(b1-4)GlcNAc(b1-4)GlcNAc
# Procedure, shortened: as §1
# [15] = target: Neu5Ac(a2-6)Gal(b1-4)GlcNAc(b1-2)Man(a1-3)[GlcNAc(b1-2)Man(a1-6)]Man(b1-4)GlcNAc(b1-4)GlcNAc
# Procedure, shortened: as §1
# [16] = target: Neu5Ac(a2-6)Gal(b1-4)GlcNAc(b1-2)Man(a1-3)[GlcNAc(b1-4)][Neu5Ac(a2-6)Gal(b1-4)GlcNAc(b1-2)Man(a1-6)]Man(b1-4)GlcNAc(b1-4)GlcNAc
# Procedure, shortened: as §1
# [17] = target: Neu5Ac(a2-6)Gal(b1-4)GlcNAc(b1-2)Man(a1-3)[Man(a1-6)]Man(b1-4)GlcNAc(b1-4)GlcNAc
# Procedure, shortened: as §1
# [18] = target: Neu5Ac(a2-6)Gal(b1-4)GlcNAc(b1-2)Man(a1-3)[Neu5Ac(a2-3)Gal(b1-4)GlcNAc(b1-2)Man(a1-6)]Man(b1-4)GlcNAc(b1-4)GlcNAc
# Procedure, shortened: as §1
# [19] = target: Neu5Ac(a2-6)Gal(b1-4)GlcNAc(b1-2)Man(a1-3)[Neu5Ac(a2-6)Gal(b1-4)GlcNAc(b1-2)Man(a1-6)]Man(b1-4)GlcNAc(b1-4)GlcNAc
# Procedure, shortened: as §1
# [20] = target: Neu5Ac(a2-6)Gal(b1-4)GlcNAc(b1-2)Man(a1-3)[Neu5Ac(a2-6)Gal(b1-4)GlcNAc(b1-2)Man(a1-6)]Man(b1-4)GlcNAc(b1-4)[Fuc(a1-6)]GlcNAc
# Procedure, shortened: as §1
# [21] = target: Neu5Ac(a2-6)Gal(b1-4)GlcNAc(b1-2)Man(a1-6)Man(b1-4)GlcNAc(b1-4)GlcNAc
# Procedure, shortened: as §1
# [22] = target: Neu5Ac(a2-6)Gal(b1-4)GlcNAc(b1-2)Man(a1-6)[Gal(b1-4)GlcNAc(b1-2)Man(a1-3)]Man(b1-4)GlcNAc(b1-4)GlcNAc
# Procedure, shortened: as §1
# [23] = target: Neu5Ac(a2-6)Gal(b1-4)GlcNAc(b1-2)Man(a1-6)[GlcNAc(b1-2)Man(a1-3)]Man(b1-4)GlcNAc(b1-4)GlcNAc
# Procedure, shortened: as §1
# [24] = target: Neu5Ac(a2-6)Gal(b1-4)GlcNAc(b1-2)Man(a1-6)[Man(a1-3)]Man(b1-4)GlcNAc(b1-4)GlcNAc
# Procedure, shortened: as §1
# [25] = target: Neu5Ac(a2-6)Gal(b1-4)GlcNAc(b1-2)[Neu5Ac(a2-6)Gal(b1-4)GlcNAc(b1-4)]Man(a1-3)[GlcNAc(b1-4)][Neu5Ac(a2-6)Gal(b1-4)GlcNAc(b1-2)[Neu5Ac(a2-6)Gal(b1-4)GlcNAc(b1-6)]Man(a1-6)]Man(b1-4)GlcNAc(b1-4)GlcNAc
# Procedure, shortened: as §1
# [26] = target: Neu5Ac(a2-6)Gal(b1-4)GlcNAc(b1-2)[Neu5Ac(a2-6)Gal(b1-4)GlcNAc(b1-4)]Man(a1-3)[GlcNAc(b1-4)][Neu5Ac(a2-6)Gal(b1-4)GlcNAc(b1-4)Man(a1-6)]Man(b1-4)GlcNAc(b1-4)GlcNAc
# Procedure, shortened: as §1
# [27] = target: Neu5Ac(a2-6)Gal(b1-4)GlcNAc(b1-2)[Neu5Ac(a2-6)Gal(b1-4)GlcNAc(b1-6)]Man(a1-6)[Neu5Ac(a2-6)Gal(b1-4)GlcNAc(b1-2)Man(a1-3)][GlcNAc(b1-4)]Man(b1-4)GlcNAc(b1-4)GlcNAc
# Procedure, shortened: as §1
# [28] = target: Neu5Ac(a2-6)Gal(b1-4)GlcNAc(b1-3)Gal(b1-3)GlcNAc
# Procedure, shortened: as §1
# [29] = target: Neu5Ac(a2-6)Gal(b1-4)GlcNAc(b1-3)Gal(b1-4)GlcNAc
# Procedure, shortened: as §1
# [30] = target: Neu5Ac(a2-6)Gal(b1-4)GlcNAc(b1-3)Gal(b1-4)GlcNAc(b1-2)Man(a1-3)[Neu5Ac(a2-6)Gal(b1-4)GlcNAc(b1-3)Gal(b1-4)GlcNAc(b1-2)Man(a1-6)]GalNAc
# Procedure, shortened: as §1
# [31] = target: Neu5Ac(a2-6)Gal(b1-4)GlcNAc(b1-3)Gal(b1-4)GlcNAc(b1-3)Gal(b1-4)GlcNAc
# Procedure, shortened: as §1
# [32] = target: Neu5Ac(a2-6)Gal(b1-4)GlcNAc(b1-3)Gal(b1-4)GlcNAc(b1-3)Gal(b1-4)GlcNAc(b1-2)Man(a1-3)[Neu5Ac(a2-6)Gal(b1-4)GlcNAc(b1-3)Gal(b1-4)GlcNAc(b1-3)Gal(b1-4)GlcNAc(b1-2)Man(a1-6)]GalNAc
# Procedure, shortened: as §1
# [33] = target: Neu5Ac(a2-6)Gal(b1-4)GlcNAc(b1-3)Gal(b1-4)GlcNAc(b1-3)GalNAc
# Procedure, shortened: as §1
# [34] = target: Neu5Ac(a2-6)Gal(b1-4)GlcNAc(b1-3)Gal(b1-4)GlcNAc(b1-3)[Neu5Ac(a2-6)Gal(b1-4)GlcNAc(b1-3)Gal(b1-4)GlcNAc(b1-6)]GalNAc
# Procedure, shortened: as §1
# [35] = target: Neu5Ac(a2-6)Gal(b1-4)GlcNAc(b1-3)Gal(b1-4)GlcNAc(b1-6)[Gal(b1-3)]GalNAc
# Procedure, shortened: as §1
# [36] = target: Neu5Ac(a2-6)Gal(b1-4)GlcNAc(b1-3)Gal(b1-4)[Fuc(a1-3)]GlcNAc(b1-3)Gal(b1-4)[Fuc(a1-3)]GlcNAc
# Procedure, shortened: as §1
# [37] = target: Neu5Ac(a2-6)Gal(b1-4)GlcNAc(b1-3)GalNAc
# Procedure, shortened: as §1
# [38] = target: Neu5Ac(a2-6)Gal(b1-4)GlcNAc(b1-3)[Neu5Ac(a2-6)Gal(b1-4)GlcNAc(b1-6)]GalNAc
# Procedure, shortened: as §1
# [39] = target: Neu5Ac(a2-6)Gal(b1-4)GlcNAc(b1-6)GalNAc
# Procedure, shortened: as §1
# [40] = target: Neu5Ac(a2-6)Gal(b1-4)GlcNAc(b1-6)[Gal(b1-3)GlcNAc(b1-3)]Gal(b1-4)Glc
# Procedure, shortened: as §1
# [41] = target: Neu5Ac(a2-6)Gal(b1-4)GlcNAc(b1-6)[Gal(b1-3)]GalNAc
# Procedure, shortened: as §1
# [42] = target: Neu5Ac(a2-6)Gal(b1-4)GlcNAc6S
# Procedure, shortened: as §1
# [43] = target: Neu5Ac(a2-6)GalNAc
# Procedure, shortened: as §1
# [44] = target: Neu5Ac(a2-6)GalNAc(b1-4)GlcNAc
# Procedure, shortened: as §1
# [45] = target: Neu5Ac(a2-6)GalNAc(b1-4)GlcNAc6S
# Procedure, shortened: as §1
binder,measurement,setting,value
B1,glycan array binding signal (z-score),[1],-0.078
same,glycan array binding signal (z-score),[2],-0.074
same,glycan array binding signal (z-score),[3],-0.088
same,glycan array binding signal (z-score),[4],-0.075
same,glycan array binding signal (z-score),[5],-0.083
same,glycan array binding signal (z-score),[6],-0.068
same,glycan array binding signal (z-score),[7],-0.086
same,glycan array binding signal (z-score),[8],-0.073
same,glycan array binding signal (z-score),[9],-0.091
same,glycan array binding signal (z-score),[10],-0.085
same,glycan array binding signal (z-score),[11],-0.072
same,glycan array binding signal (z-score),[12],-0.057
same,glycan array binding signal (z-score),[13],-0.074
same,glycan array binding signal (z-score),[14],-0.067
same,glycan array binding signal (z-score),[15],-0.054
same,glycan array binding signal (z-score),[16],-0.082
same,glycan array binding signal (z-score),[17],-0.09
same,glycan array binding signal (z-score),[18],-0.055
same,glycan array binding signal (z-score),[19],-0.064
same,glycan array binding signal (z-score),[20],-0.064
same,glycan array binding signal (z-score),[21],-0.059
same,glycan array binding signal (z-score),[22],-0.072
same,glycan array binding signal (z-score),[23],-0.028
same,glycan array binding signal (z-score),[24],-0.034
same,glycan array binding signal (z-score),[25],-0.051
same,glycan array binding signal (z-score),[26],-0.081
same,glycan array binding signal (z-score),[27],-0.045
same,glycan array binding signal (z-score),[28],-0.061
same,glycan array binding signal (z-score),[29],-0.073
same,glycan array binding signal (z-score),[30],-0.083
same,glycan array binding signal (z-score),[31],-0.072
same,glycan array binding signal (z-score),[32],-0.056
same,glycan array binding signal (z-score),[33],-0.091
same,glycan array binding signal (z-score),[34],-0.079
same,glycan array binding signal (z-score),[35],-0.066
same,glycan array binding signal (z-score),[36],-0.071
same,glycan array binding signal (z-score),[37],-0.076
same,glycan array binding signal (z-score),[38],-0.041
same,glycan array binding signal (z-score),[39],-0.082
same,glycan array binding signal (z-score),[40],-0.052
same,glycan array binding signal (z-score),[41],-0.072
same,glycan array binding signal (z-score),[42],-0.062
same,glycan array binding signal (z-score),[43],-0.077
same,glycan array binding signal (z-score),[44],0.004
same,glycan array binding signal (z-score),[45],-0.083

# Source: the supplement of paper PMC8728848
